# Source: the supplement of paper PMC8728848
# The list shows a part of the results.
# How the values were obtained:
# Test in all cases: glycan array binding signal (z-score within array); higher = stronger binding
# Settings in all cases: glycan notation: IUPAC condensed, linker removed
# [1] = target: Gal(b1-4)GlcNAc(b1-3)Gal(b1-4)GlcNAc(b1-3)Gal(b1-4)GlcNAc(b1-3)Gal(b1-4)GlcNAc(b1-2)Man(a1-3)[Gal(b1-4)GlcNAc(b1-3)Gal(b1-4)GlcNAc(b1-3)Gal(b1-4)GlcNAc(b1-3)Gal(b1-4)GlcNAc(b1-2)Man(a1-6)]Man(b1-4)GlcNAc(b1-4)[Fuc(a1-6)]GlcNAc
# Method in brief: (§1)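 The binding signal is a Z-score computed within each array and averaged over linkers. Arrays of the same protein sequence at different concentrations or buffers were also averaged together. Data originate from 3228 arrays in the Consortium for Functional Glycomics database, kept only where the protein sequence was available.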
# [2] = target: Gal(b1-4)GlcNAc(b1-3)Gal(b1-4)GlcNAc(b1-3)Gal(b1-4)GlcNAc(b1-3)Gal(b1-4)GlcNAc(b1-2)[Gal(b1-4)GlcNAc(b1-3)Gal(b1-4)GlcNAc(b1-3)Gal(b1-4)GlcNAc(b1-3)Gal(b1-4)GlcNAc(b1-6)]Man(a1-6)[Gal(b1-4)GlcNAc(b1-3)Gal(b1-4)GlcNAc(b1-3)Gal(b1-4)GlcNAc(b1-3)Gal(b1-4)GlcNAc(b1-2)Man(a1-3)]Man(b1-4)GlcNAc(b1-4)[Fuc(a1-6)]GlcNAc
# Method in brief: as §1
# [3] = target: Gal(b1-4)GlcNAc(b1-3)Gal(b1-4)GlcNAc(b1-3)Gal(b1-4)GlcNAc(b1-3)Gal(b1-4)GlcNAc(b1-3)Gal(b1-4)GlcNAc(b1-2)Man(a1-3)[Gal(b1-4)GlcNAc(b1-3)Gal(b1-4)GlcNAc(b1-3)Gal(b1-4)GlcNAc(b1-3)Gal(b1-4)GlcNAc(b1-3)Gal(b1-4)GlcNAc(b1-2)Man(a1-6)]Man(b1-4)GlcNAc(b1-4)GlcNAc
# Method in brief: as §1
# [4] = target: Gal(b1-4)GlcNAc(b1-3)Gal(b1-4)GlcNAc(b1-3)Gal(b1-4)GlcNAc(b1-3)Gal(b1-4)GlcNAc(b1-3)Gal(b1-4)GlcNAc(b1-2)Man(a1-3)[Gal(b1-4)GlcNAc(b1-3)Gal(b1-4)GlcNAc(b1-3)Gal(b1-4)GlcNAc(b1-3)Gal(b1-4)GlcNAc(b1-3)Gal(b1-4)GlcNAc(b1-2)Man(a1-6)]Man(b1-4)GlcNAc(b1-4)[Fuc(a1-6)]GlcNAc
# Method in brief: as §1
# [5] = target: Gal(b1-4)GlcNAc(b1-3)Gal(b1-4)GlcNAc(b1-3)Gal(b1-4)GlcNAc(b1-3)Gal(b1-4)GlcNAc(b1-3)Gal(b1-4)GlcNAc(b1-2)[Gal(b1-4)GlcNAc(b1-3)Gal(b1-4)GlcNAc(b1-3)Gal(b1-4)GlcNAc(b1-3)Gal(b1-4)GlcNAc(b1-3)Gal(b1-4)GlcNAc(b1-6)]Man(a1-6)[Gal(b1-4)GlcNAc(b1-3)Gal(b1-4)GlcNAc(b1-3)Gal(b1-4)GlcNAc(b1-3)Gal(b1-4)GlcNAc(b1-3)Gal(b1-4)GlcNAc(b1-2)Man(a1-3)]Man(b1-4)GlcNAc(b1-4)[Fuc(a1-6)]GlcNAc
# Method in brief: as §1
# [6] = target: Gal(b1-4)GlcNAc(b1-3)Gal(b1-4)GlcNAc(b1-3)Gal(b1-4)GlcNAc(b1-3)Gal(b1-4)GlcNAc(b1-3)Gal(b1-4)GlcNAc(b1-3)Gal(b1-4)GlcNAc(b1-2)Man(a1-3)[Gal(b1-4)GlcNAc(b1-3)Gal(b1-4)GlcNAc(b1-3)Gal(b1-4)GlcNAc(b1-3)Gal(b1-4)GlcNAc(b1-3)Gal(b1-4)GlcNAc(b1-3)Gal(b1-4)GlcNAc(b1-2)Man(a1-6)]Man(b1-4)GlcNAc(b1-4)GlcNAc
# Method in brief: as §1
# [7] = target: Gal(b1-4)GlcNAc(b1-3)Gal(b1-4)GlcNAc(b1-3)GalNAc
# Method in brief: as §1
# [8] = target: Gal(b1-4)GlcNAc(b1-3)Gal(b1-4)GlcNAc(b1-3)[Gal(b1-4)GlcNAc(b1-3)Gal(b1-4)GlcNAc(b1-6)]GalNAc
# Method in brief: as §1
# [9] = target: Gal(b1-4)GlcNAc(b1-3)Gal(b1-4)GlcNAc(b1-6)[Gal(b1-3)]GalNAc
# Method in brief: as §1
# [10] = target: Gal(b1-4)GlcNAc(b1-3)Gal(b1-4)[Fuc(a1-3)]GlcNAc(b1-3)Gal(b1-4)[Fuc(a1-3)]GlcNAc
# Method in brief: as §1
# [11] = target: Gal(b1-4)GlcNAc(b1-3)GalNAc
# Method in brief: as §1
# [12] = target: Gal(b1-4)GlcNAc(b1-3)[Fuc(a1-3)GlcNAc(b1-6)]Gal(b1-4)Glc
# Method in brief: as §1
# [13] = target: Gal(b1-4)GlcNAc(b1-3)[Gal(b1-4)GlcNAc(b1-6)]Gal(b1-4)GlcNAc
# Method in brief: as §1
# [14] = target: Gal(b1-4)GlcNAc(b1-3)[GlcNAc(b1-6)]Gal(b1-4)GlcNAc
# Method in brief: as §1
# [15] = target: Gal(b1-4)GlcNAc(b1-6)Gal(b1-4)GlcNAc
# Method in brief: as §1
# [16] = target: Gal(b1-4)GlcNAc(b1-6)GalNAc
# Method in brief: as §1
# [17] = target: Gal(b1-4)GlcNAc(b1-6)[Gal(b1-3)]GalNAc
# Method in brief: as §1
# [18] = target: Gal(b1-4)GlcNAc(b1-6)[Gal(b1-4)GlcNAc(b1-3)]GalNAc
# Method in brief: as §1
# [19] = target: Gal(b1-4)GlcNAc6P
# Method in brief: as §1
# [20] = target: Gal(b1-6)Gal
# Method in brief: as §1
# [21] = target: Gal3S(b1-3)GalNAc
# Method in brief: as §1
# [22] = target: Gal3S(b1-3)GlcNAc
# Method in brief: as §1
# [23] = target: Gal3S(b1-3)[Fuc(a1-4)]GlcNAc
# Method in brief: as §1
# [24] = target: Gal3S(b1-4)Glc
# Method in brief: as §1
# [25] = target: Gal3S(b1-4)Glc6S
# Method in brief: as §1
# [26] = target: Gal3S(b1-4)GlcNAc
# Method in brief: as §1
# [27] = target: Gal3S(b1-4)[Fuc(a1-3)]Glc6S
# Method in brief: as §1
# [28] = target: Gal3S(b1-4)[Fuc(a1-3)]GlcNAc
# Method in brief: as §1
# [29] = target: Gal3S(b1-4)[Fuc(a1-3)]GlcNAc6S
# Method in brief: as §1
# [30] = target: Gal3S4S(b1-4)GlcNAc
# Method in brief: as §1
# [31] = target: Gal3S6S(b1-4)GlcNAc
# Method in brief: as §1
# [32] = target: Gal3S6S(b1-4)GlcNAc6S
# Method in brief: as §1
# [33] = target: Gal4S(b1-4)GlcNAc
# Method in brief: as §1
# [34] = target: Gal4S6S(b1-4)GlcNAc
# Method in brief: as §1
# [35] = target: Gal6P(b1-4)GlcNAc
# Method in brief: as §1
# [36] = target: Gal6S(b1-3)GlcNAc
# Method in brief: as §1
# [37] = target: Gal6S(b1-3)GlcNAc6S
# Method in brief: as §1
# [38] = target: Gal6S(b1-4)Glc
# Method in brief: as §1
binder,measurement,setting,value
SP16663B-bot-321-25-321 (Bacteroides ovatus) (protein) DDDDEVTMNSKFYLSTKVFPVDSYEASLSVILKDNSVVVNELQPNYRFVACATERLSKDVKITADSDDNLVSAYNKANDTEYNILPAENYSFTNKTVTIENGESVSGDSIKIELLNVGSLTTEGGYLLPVTISSIEGNNLDALSSNRGVVYLKIQNIHVNVESGQPAEGTLIADRSGWTVKVAPTTRGDAKNLIDGTNSDVARDGGAEYWLTVDIGKVQTLTGIRNKCYASSYSPTAVEVFTSSDGAKWKSIGAVTISKSGTQYIKFSKAVETRYLKYYVKQGPNTVSLTEFDLYAK,glycan array binding signal (z-score),[1],0.288
same,glycan array binding signal (z-score),[2],0.458
same,glycan array binding signal (z-score),[3],-0.033
same,glycan array binding signal (z-score),[4],-0.192
same,glycan array binding signal (z-score),[5],0.068
same,glycan array binding signal (z-score),[6],0.751
same,glycan array binding signal (z-score),[7],-0.196
same,glycan array binding signal (z-score),[8],1.04
same,glycan array binding signal (z-score),[9],-0.878
same,glycan array binding signal (z-score),[10],0.157
same,glycan array binding signal (z-score),[11],-0.215
same,glycan array binding signal (z-score),[12],-0.211
same,glycan array binding signal (z-score),[13],-0.358
same,glycan array binding signal (z-score),[14],0.351
same,glycan array binding signal (z-score),[15],0.198
same,glycan array binding signal (z-score),[16],0.415
same,glycan array binding signal (z-score),[17],0.648
same,glycan array binding signal (z-score),[18],0.3
same,glycan array binding signal (z-score),[19],-0.283
same,glycan array binding signal (z-score),[20],-0.947
same,glycan array binding signal (z-score),[21],-0.196
same,glycan array binding signal (z-score),[22],-0.14
same,glycan array binding signal (z-score),[23],-0.262
same,glycan array binding signal (z-score),[24],-0.478
same,glycan array binding signal (z-score),[25],0.118
same,glycan array binding signal (z-score),[26],0.643
same,glycan array binding signal (z-score),[27],0.96
same,glycan array binding signal (z-score),[28],0.042
same,glycan array binding signal (z-score),[29],-0.022
same,glycan array binding signal (z-score),[30],-0.208
same,glycan array binding signal (z-score),[31],0.504
same,glycan array binding signal (z-score),[32],-0.063
same,glycan array binding signal (z-score),[33],0.866
same,glycan array binding signal (z-score),[34],-0.341
same,glycan array binding signal (z-score),[35],-0.471
same,glycan array binding signal (z-score),[36],0.005
same,glycan array binding signal (z-score),[37],0.289
same,glycan array binding signal (z-score),[38],-0.03
